Measured values from PubChem BioAssay AID1963576 (National Center for Advancing Translational Sciences (NCATS), 2024).
The whole screen tested about 46,000 compounds, of which about 60 (0.1%) were called active. About 3% were inconclusive and are not listed. The call rests on the fitted dose curve; in most records, active means well fitted inhibition curve with a large enough effect; inconclusive means small, poorly fitted or top-dose-only effect; inactive means no such curve, though single readings can be large or run the other way. The list shows a part of the results.

Experiment: Primary qHTS assay for Inhibitors of ovarian cancer metastasis using an organotypic tumor microenvironment (TME) model. Further: nearly all actives have a fitted effect of over 65% in size.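 On activity change, negative = inhibition: plate controls were DMSO wells for no effect and tomatine positive control wells for full effect.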
Settings: SKOV3ip1-GFP adhesion/invasion on 3D omental model, fluorescence; series mostly up to 45.8 µM; activity change, negative = inhibition: at the top concentration
Method in brief: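 Primary human omental fibroblast/mesothelial 3D culture pre-formed 48 h. SKOV3ip1-GFP cells added with compounds (0.36-46 umol/L), incubated 2 h RT/16 h 37 C, fixed; GFP cells quantified at 488/509 nm.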

outcome, inactive:
COc1ccc(C)cc1NC(=O)c1cc2ccccn2n1
CCOC(=O)c1ccc(NC(=O)c2sc3ccccc3c2Cl)cc1
CCOc1ccccc1C(=O)Nc1ccc(-n2nncc2-c2ccccc2)cc1
COc1ccc(Cl)cc1NC(=O)CCn1c(=O)c2cccn2c2ccccc21
CCC(C(=O)Nc1ccc(C(C)C)cc1)n1nc(C)n2c(cc3cc(C)ccc32)c1=O (configuration not stated)
CSc1ccc(NC(=O)C2CCN(c3ncccn3)CC2)cc1
Cc1cc(-c2ccc(C)c(S(=O)(=O)Nc3ccccn3)c2)on1
COc1ccc(Br)cc1CNC(=O)c1ccc2nc(C(C)C)oc2c1
Cc1ccc(NC(=O)CN2C(=O)C(c3ccc(C(C)(C)C)cc3)=NC2(C)C)cc1
CCCN(CCC)C(=O)CSc1c2c(nc3ccc(Cl)cc13)CCCC2
COc1ccc(OC)c(NC(=O)Cn2c(=O)n(Cc3ccco3)c(=O)c3cc(OC)c(OC)cc32)c1
Cc1cc(C)cc(-n2c(SCC(=O)Nc3cccc(F)c3)nc3c([nH]c4ccccc43)c2=O)c1
COc1ccc(N2CCN(C(=O)COc3ccccc3C#N)CC2)cc1
COc1ccc2c(c1)c1c(c(=O)n(Cc3ccccc3)c(=O)n1Cc1ccccc1Cl)n2C
CC(=O)c1cccc(NC(=O)Cc2ccc(NC(=O)N3CCCCc4ccccc43)cc2)c1
COc1ccc(S(=O)(=O)N(CC(=O)NCCSc2ccccc2)c2ccc(C)cc2)cc1
O=C(NCc1ccc(F)cc1)c1cc2cccc3c2n1CCS3
CCc1nonc1NC(=O)c1oc2cc(C)c(C)cc2c1C
CC1CCCCN1C(=O)CN1CCSc2ccccc21 (configuration not stated)
CCc1ccccc1NC(=O)CCCn1c(=O)c2cccn2c2ccccc21
CCc1cccc(-n2c(=O)c3cccnc3n2CC(=O)Nc2ccc(OC)c(Cl)c2)c1
CCOc1ccc(NC(=O)[C@@H](c2ccccc2)N2Cc3ccccc3C2=O)cc1
CC(C)c1ccc(N2C(=O)N(Cc3cccc([N+](=O)[O-])c3)c3ccccc3S2(=O)=O)cc1
CC1Cc2cc(S(=O)(=O)NCc3ccc(Cl)cc3)ccc2N1C(=O)C1CCC1 (configuration not stated)
CCN(CC)c1ccc(NC(=O)CCc2c(C)nc3ncnn3c2C)c(C)c1

Activity change, negative = inhibition, inactive:
O=C(CCN1CCN(CCO)CC1)Nc1ccc(Br)cc1 -6.57%
Cc1cccc(CN2C(=O)c3ccccc3S(=O)(=O)c3ccc(C(=O)N(C)Cc4ccccc4)cc32)c1 29.3%
O=C1CC(c2nnc(Cc3c(F)cccc3Cl)o2)CN1c1ccccc1 (configuration not stated) -2.39%
Cc1ccc(Nc2c(-c3ccc(N4CCOCC4)cc3)nc3cccc(C)n23)cc1 -24.5%
Cc1ccc(NC(=O)c2c(C)nc3sc(C(=O)Nc4ccc(F)cc4)c(N)c3c2-c2ccc(Cl)cc2)c(C)c1 -1.76%
COc1cccc(NC(=O)CCc2nnc3n(Cc4ccccc4Cl)c(=O)c4ccccc4n23)c1 -4.95%
Cc1ccc(-c2nnc3ccccc3c2C(=O)Nc2ccc(C)c(F)c2)cc1 4.03%
COc1ccccc1C(=O)Nc1nnc(S(=O)(=O)N2CCN(c3ccc(F)cc3)CC2)s1 -12%
CCOC(=O)c1ccc(NC2(c3ccccc3)C(=O)c3ccccc3C2=O)cc1 1.21%
COc1ccccc1NC(=O)CN(c1cc(C)cc(C)c1)S(=O)(=O)c1c(C)[nH]c(=O)[nH]c1=O 3.68%
COc1cc(OC)c(NS(=O)(=O)c2cc3c(cc2C)N(C(C)=O)CCO3)cc1Cl -7.84%
CCc1nnc(SCc2nc(-c3cccc(Cl)c3)oc2C)c2cc3sc(C)cc3n12 7.35%
Cc1ccccc1C(=O)NCc1nc(-c2ccc(Cl)cc2)no1 6.84%
Cc1ccc(C)c(Cn2c(=O)cc(C(F)(F)F)c3c(C)nn(C)c32)c1 2.3%
CN(C)c1ccc(CNC(=O)C2CCCN(S(=O)(=O)c3ccc4c(c3)CCCC(=O)N4)C2)cc1 (configuration not stated) 5.25%
Cc1cccc(NC(=O)Cn2nnc(C(=O)NCc3cccs3)c2N)c1 -6.46%
NC(=O)c1c(NC(=O)c2cc(-c3ccc(F)cc3)on2)sc2c1CCCC2 1.77%
Cc1oc(-c2ccc(Cl)cc2)nc1CS(=O)CC(=O)NCCc1ccccc1 (configuration not stated) -17.6%
CCOc1ccc2oc(=O)cc(CN3CCN(Cc4ccc(C)cc4)CC3)c2c1 -4.2%
COc1ccc(N2C(=O)CSC23C(=O)N(Cc2cccc(C(F)(F)F)c2)c2ccccc23)cc1 (configuration not stated) -13.6%
Cc1ccc(Nc2c3c(nc4nc(-c5cccs5)nn24)CCCC3)cc1F -5.77%
Cc1cccc(Cn2c(=O)n(CCCC(=O)NCc3ccccc3Cl)c(=O)c3ccccc32)c1 -0.153%
COc1ccccc1CNc1nc(-c2ccco2)nn1S(C)(=O)=O 2.21%
COc1ccc(S(=O)(=O)NC(C)(C)C)cc1-c1nnc2c3ccccc3c(C)nn12 8.03%
CCOC(=O)Cn1nc(C)c(NC(=O)COc2ccccc2)c1C -10.4%
COc1ccccc1OCC(=O)N(Cc1cccs1)C1CCS(=O)(=O)C1 (configuration not stated) 7.84%
CCN1CCN(c2ncc3c(n2)CCN(CC(C)C)C3)CC1 5.19%
COc1ccc(N(Cc2cccs2)C(=O)COc2cccc(C)c2C)cc1 2.21%
COc1cc(OC)c(NS(=O)(=O)c2c(C(=O)N3CCCCCC3)c(C)n(C)c2C)cc1Cl 5.59%
COc1cc(NC(=O)CCn2c(=O)oc3ccccc32)cc(OC)c1OC -3.53%
COC(=O)CC1Oc2ccc(F)cc2-n2cc(-c3ccc(C)cc3)nc21 (configuration not stated) -27.1%
Cc1ccc(CNc2nc3ccc(Cl)cc3n3nnnc23)cc1 -7.88%
CCOC(=O)N1CCc2c(sc(NCc3cccc(F)c3)c2C(=O)Nc2ccc(OC)cc2)C1 -7.1%
COc1ccc(-n2cc(-c3ccccc3)nc2SCC(=O)Nc2ccccc2C)cc1 1.11%
Cc1cccc(CC(=O)N2CC(=O)Nc3ccc(C)cc3C2c2ccc(F)cc2)c1 (configuration not stated) -11.4%
CCOc1ccc(-n2ccnc2SCC(=O)Nc2cccc3ccccc23)cc1 -8.94%
O=[N+]([O-])c1cc(-c2nc(-c3ccccc3)no2)ccc1NCc1cccnc1 -19.1%
COc1ccccc1Cc1nc2ccccc2nc1SCC(=O)Nc1ccc2c(c1)OCO2 -4.28%
COc1ccccc1CNC(=O)CCCCn1c(=O)c2ccccc2n(CC(=O)Nc2c(C)cc(C)cc2C)c1=O -20.4%
Brc1ccc(Nc2c3c(nc4nncn24)CCC3)cc1 0.537%
Cc1ccc(C(=O)Nc2ccc(-c3nc4ccccc4o3)cc2)cc1Cl 7.8%
Cc1ccc(C)c(NC(=O)C(Cc2ccccc2)n2cccc2)c1 (configuration not stated) 30.4%
CS(=O)(=O)N1CCc2c(-c3cnc(N)nc3)nc(N3CCOCC3)nc21 8.29%
CCc1ccc(NC(=O)C2=C(C)C(=O)OC23CCCCC3)cc1 -12.9%
COc1ccc(OCC(=O)Nc2c(C(=O)N3CCN(c4ccccc4)CC3)oc3ccccc23)cc1 7.17%
COCCNc1nc2c(c(=O)n(Cc3cccc(Cl)c3)c(=O)n2C)n1C -4.08%
Cc1ccc(NC(=O)C2CCC(CNS(=O)(=O)c3ccc4c(c3)CCCC(=O)N4)CC2)cc1F (configuration not stated) 8.2%
CCOC(=O)c1cc(-c2ccccc2)n(CCC(=O)NCCc2cccc(C)c2)c1C -6.6%
COC(=O)c1ccc(NC(=O)C(=O)NCC(c2cccnc2)N2CCN(c3ccccc3)CC2)cc1 (configuration not stated) 2.68%
CCCCNc1oc(-c2ccc(COc3ccccc3C)o2)nc1C#N -48%
O=C(O)c1cccc(NC(=O)c2cc3cc(Br)cc(Br)c3oc2=O)c1 -4.14%
CCCCN1CCCc2cc(CN(CCCN3CCOCC3)C(=O)Nc3ccc(CC)cc3)ccc21 1.79%
CCOC(=O)c1c(-c2ccc(OC)c(OC)c2)csc1NC(=O)c1ccc(C)cc1 -23.8%
COc1ccc(-c2cc(C(=O)Nc3cc(C)nn3-c3ccccc3)no2)cc1OC -1.85%
Cc1ccc(NC(=O)c2cnc3cc(C)ccn3c2=O)c(C)c1 -3.61%
CCCCSc1nc(-c2cccc(OC)c2)nc2c1Cc1c(CO)cnc(C)c1O2 -5.88%
O=S(=O)(NCc1ccc(F)cc1)c1ccc2[nH]c3c(c2c1)CCCC3 9.05%
Cc1c(Cl)cccc1NC(=O)c1oc2ccc(S(=O)(=O)N3CCC4(CC3)OCCO4)cc2c1C -0.227%
Cc1ccc(-c2cc(NC(=O)c3cccc(C)c3)on2)cc1 -15.7%
CCC(=O)Nc1ccc(CC)cc1-c1nc2ccccc2n(CC(=O)c2ccc(OC)cc2)c1=O 23.1%
COc1cccc(-n2c(SCC(N)=O)nc3c(oc4ccccc43)c2=O)c1 -12.3%
COc1ccc(C(=O)Oc2ccc(C(c3c(C)[nH][nH]c3=O)c3c(C)[nH][nH]c3=O)cc2)cc1 7.73%
COc1ccc(NC(=O)C2Cc3ccccc3CN2S(=O)(=O)c2ccccc2)cc1OC (configuration not stated) -2.79%
Cc1cc(S(=O)(=O)Nc2ccc3oc4c(c3c2)CCCC4)ccc1Cl -9.7%
O=C1CN(C(=O)Cc2ccccc2)C(c2ccc(F)cc2)c2cc(Br)ccc2N1 (configuration not stated) 0.872%
Cc1noc(-c2ccc(-c3noc(-c4ccc([N+](=O)[O-])c(C)c4)n3)cc2)n1 -4.85%
COc1ccc(NS(=O)(=O)c2ccc3c(c2)[C@H]2C=CC[C@H]2[C@@H](c2ccc(C(=O)O)cc2)N3)cc1 -5.06%
CCCc1nn2c(=O)cc(COC(=O)c3ccc(NC(=O)COc4ccccc4F)cc3)nc2s1 -7.32%
Cc1ccc(S(=O)(=O)N2CCc3cc(C(=O)Nc4ccc(Cl)cc4C)ccc32)cc1 11.9%
CCOc1ccc(CCNCc2c(C(=O)O)c(C)n(Cc3ccccc3F)c2C)cc1 -1.35%
O=S(=O)(NCCc1csc2nc(-c3ccccc3)nn12)c1ccc(Oc2ccccc2)cc1 -10.3%
Cc1cccn2c(=O)c(C(=O)N3CCN(c4ccc(Cl)cc4)CC3)cnc12 -4.03%
